In patent US10604555B2, “GIP derivatives and uses thereof” (priority 2018, dated 2020):
Not every detail of the peptide structures is certain; ends, links or a residue may be inferred. For at least one compound, name, drawing or mass did not settle the structure. *1 amine or outer side, *2 acyl side, *3 side chain or, on linkers, in order; H or OH if unused. Where a SMILES comes first, the peptide text is derived from it. Side-chain parts run from the residue outwards. [ ]: non-standard residue; d: D form. The star is where a group is joined. X1 = O=C(O)CCCCCCCCCCCCCCCCCCC(=O)NCC1CCC(C(=O)*)CC1; γGlu = O=C(O)[C@H](CCC(=O)[*:2])N[*:1]; Nle = CCCC[C@H](N)C(=O)O; Aib = CC(C)(N)C(=O)O

What was measured:
Format in all cases: physicochemical
[1] = ThT fibrillation assay (physical stability); details: 250 μM, pH 7.4, 37° C., 45 hours of incubation
Outline: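 250 μM GIP derivative in 8 mM phosphate, 14 mg/mL propylene glycol, 58 mM phenol, pH 7.4, with 1 μM ThT; plates shaken and heated, fluorescence (ex 444/em 485 nm) read every 20 min, four replicates. Sigmoidal fit gives lag-time (t0−2τ) and kapp (1/τ); recovery is HPLC concentration of filtered supernatant relative to initial sample.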

[2] = Dynamic Light Scattering Stability Index (DLS-SI); details: 250 μM, pH 7.4, 4 weeks at 25° C.
[3] = Chemical stability: HMWP formation by SEC-MS; details: 37° C., 4 weeks, 250 μM, pH 7.4
Outline: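 GIP derivative compositions were freshly prepared and pH-adjusted with NaOH/HCl. %HMWP (covalent oligomers) was followed over time by SEC with UV at 215 nm and positive-mode QToF MS (m/z 100–4000), using MaxEnt deconvolution. Purity loss was measured by LCMS.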

[4] = Chemical stability: purity loss by LCMS; details: 37° C., 4 weeks, 250 μM, pH 7.4
Outline: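 GIP derivative compositions prepared fresh, pH adjusted with NaOH/HCl; purity loss followed by LCMS with column at 55° C, UV detection at 215 nm and ESI high-resolution ToF MS (m/z 100-2000). HMWP formation over time tracked separately by SEC-MS.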

Compound	ThT Assay Lag time [1] [h]	DLS-SI Dimensionless [2]	DLS-SI precipitates [2]	HMWP formation (%/month) [3] [%/month]	Purity loss (%/month) [4] [%/month]
CCCC[C@H](NC(=O)[C@H](C)NC(=O)[C@@H](NC(=O)[C@H](CO)NC(=O)[C@H](Cc1ccc(O)cc1)NC(=O)[C@H](CC(=O)O)NC(=O)[C@H](CO)NC(=O)[C@@H](NC(=O)[C@H](Cc1ccccc1)NC(=O)[C@@H](NC(=O)CNC(=O)[C@H](CCC(=O)O)NC(=O)[C@H](C)NC(=O)[C@@H](Cc1ccc(O)cc1)NC(C)=O)[C@@H](C)O)[C@@H](C)CC)[C@@H](C)CC)C(=O)N[C@@H](CC(=O)O)C(=O)N[C@@H](CCCCN)C(=O)N[C@H](C(=O)N[C@@H](CCCNC(=N)N)C(=O)N[C@@H](CCC(N)=O)C(=O)N[C@@H](CCC(N)=O)C(=O)N[C@@H](CC(=O)O)C(=O)N[C@@H](Cc1ccccc1)C(=O)N[C@H](C(=O)N[C@@H](CCCCNC(=O)COCCOCCNC(=O)COCCOCCNC(=O)CC[C@H](NC(=O)CC[C@H](NC(=O)CC[C@H](NC(=O)CCCCCCCCCCCCCCCCC(=O)O)C(=O)O)C(=O)O)C(=O)O)C(=O)N[C@@H](Cc1c[nH]c2ccccc12)C(=O)N[C@@H](CC(C)C)C(=O)N[C@@H](CC(C)C)C(=O)N[C@@H](C)C(=O)N[C@@H](CCC(N)=O)C(=O)N[C@@H](CCCCN)C(=O)NCC(=O)O)C(C)C)[C@@H](C)CC [Compound 17, N{1}-acetyl,N{Epsilon-24}-[2-[2-[2-[[2-[2-[2-[[(4S)-4-carboxy-4-[[(4S)-4-carboxy-4-[[(4S)-4-carboxy-4-(17-carboxyheptadecanoylamino)butanoyl]amino]butanoyl]amino]-butanoyl]amino]ethoxy]ethoxy]acetyl]amino]ethoxy]ethoxy]acetyl]-[D-Tyr1,Nle14,Arg18,Lys24]-hGIP(1-31)]	>45	0.6	No	−0.30	4.00
CCCC[C@H](NC(=O)[C@H](C)NC(=O)[C@@H](NC(=O)[C@H](CO)NC(=O)[C@H](Cc1ccc(O)cc1)NC(=O)[C@H](CC(=O)O)NC(=O)[C@H](CO)NC(=O)[C@@H](NC(=O)[C@H](Cc1ccccc1)NC(=O)[C@@H](NC(=O)CNC(=O)[C@H](CCC(=O)O)NC(=O)C(C)(C)NC(=O)[C@@H](N)Cc1ccc(O)cc1)[C@@H](C)O)[C@@H](C)CC)[C@@H](C)CC)C(=O)N[C@@H](CC(=O)O)C(=O)N[C@@H](CCCCN)C(=O)N[C@H](C(=O)N[C@@H](CCCNC(=N)N)C(=O)N[C@@H](CCC(N)=O)C(=O)NC(C)(C)C(=O)N[C@@H](CC(=O)O)C(=O)N[C@@H](Cc1ccccc1)C(=O)N[C@H](C(=O)N[C@@H](CCCCNC(=O)CC[C@H](NC(=O)CC[C@H](NC(=O)CC[C@H](NC(=O)C1CCC(CNC(=O)CCCCCCCCCCCCCCCCCCC(=O)O)CC1)C(=O)O)C(=O)O)C(=O)O)C(=O)N[C@@H](Cc1c[nH]c2ccccc12)C(=O)N[C@@H](CC(C)C)C(=O)N[C@@H](CC(C)C)C(=O)N[C@@H](C)C(=O)N[C@@H](CCC(N)=O)C(=O)N[C@@H](CCCCN)C(=O)NCC(=O)O)C(C)C)[C@@H](C)CC (stereo partly drawn) [Compound 12, N{Epsilon-24}-[(4S)-4-carboxy-4-[[(4S)-4-carboxy-4-[[(4S)-4-carboxy-4-[[4-[(19-carboxynonadecanoylamino)methyl]cyclohexanecarbonyl]amino]butanoyl]amino]-butanoyl]amino]butanoyl]-[Aib2,Nle14,Arg18,Aib20,Lys24]-hGIP(1-31)] (H-Y[Aib]EGTFISDYSIA[Nle]DKIRQ[Aib]DFVK([γGlu-γGlu-γGlu-X1])WLLAQKG-OH; N-terminus and C-terminus assumed)	>45	0.6	No	0.70	4.40
CCCC[C@H](NC(=O)[C@H](C)NC(=O)[C@@H](NC(=O)[C@H](CO)NC(=O)[C@H](Cc1ccc(O)cc1)NC(=O)[C@H](CC(=O)O)NC(=O)[C@H](CO)NC(=O)[C@@H](NC(=O)[C@H](Cc1ccccc1)NC(=O)[C@@H](NC(=O)CNC(=O)[C@H](CCC(=O)O)NC(=O)C(C)(C)NC(=O)[C@@H](N)Cc1ccc(O)cc1)[C@@H](C)O)[C@@H](C)CC)[C@@H](C)CC)C(=O)N[C@@H](CC(=O)O)C(=O)N[C@@H](CCCCN)C(=O)N[C@H](C(=O)N[C@@H](CCCNC(=N)N)C(=O)N[C@@H](CCC(N)=O)C(=O)N[C@@H](CCC(N)=O)C(=O)N[C@@H](CC(=O)O)C(=O)N[C@@H](Cc1ccccc1)C(=O)N[C@H](C(=O)N[C@@H](CCCCNC(=O)CC[C@H](NC(=O)CC[C@H](NC(=O)CC[C@H](NC(=O)C1CCC(CNC(=O)CCCCCCCCCCCCCCCCCCC(=O)O)CC1)C(=O)O)C(=O)O)C(=O)O)C(=O)N[C@@H](Cc1c[nH]c2ccccc12)C(=O)N[C@@H](CC(C)C)C(=O)N[C@@H](CC(C)C)C(=O)N[C@@H](C)C(=O)N[C@@H](CCC(N)=O)C(=O)N[C@@H](CCCCN)C(=O)NCC(=O)O)C(C)C)[C@@H](C)CC (stereo partly drawn) [Compound 4, N{Epsilon-24}-[(4S)-4-carboxy-4-[[(4S)-4-carboxy-4-[[(4S)-4-carboxy-4-[[4-[(19-carboxynonadecanoylamino)methyl]cyclohexanecarbonyl]amino]butanoyl]amino]butanoyl]amino]butanoyl][Aib2,Nle14,Arg18,Lys24]-hGIP(1-31)]	>45	0.6	No	0.50	2.00
